The campaign covered roughly 310,000 compounds. About 14,000 (4.5%) showed an effect of 50% or more. The effect is printed as a negative number. This is one part of the list.
These compounds were tested against human ether-à-go-go-related gene (hERG) potassium channel (human, UniProt Q12809) (assay: primary screen, population patch clamp on CHO cells stably expressing hERG).
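Note: peak tail current of the secondary pulse compared with the same well before compound.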

human ether-à-go-go-related gene (hERG) potassium channel, sequence (Q12809 whole entry, looked up): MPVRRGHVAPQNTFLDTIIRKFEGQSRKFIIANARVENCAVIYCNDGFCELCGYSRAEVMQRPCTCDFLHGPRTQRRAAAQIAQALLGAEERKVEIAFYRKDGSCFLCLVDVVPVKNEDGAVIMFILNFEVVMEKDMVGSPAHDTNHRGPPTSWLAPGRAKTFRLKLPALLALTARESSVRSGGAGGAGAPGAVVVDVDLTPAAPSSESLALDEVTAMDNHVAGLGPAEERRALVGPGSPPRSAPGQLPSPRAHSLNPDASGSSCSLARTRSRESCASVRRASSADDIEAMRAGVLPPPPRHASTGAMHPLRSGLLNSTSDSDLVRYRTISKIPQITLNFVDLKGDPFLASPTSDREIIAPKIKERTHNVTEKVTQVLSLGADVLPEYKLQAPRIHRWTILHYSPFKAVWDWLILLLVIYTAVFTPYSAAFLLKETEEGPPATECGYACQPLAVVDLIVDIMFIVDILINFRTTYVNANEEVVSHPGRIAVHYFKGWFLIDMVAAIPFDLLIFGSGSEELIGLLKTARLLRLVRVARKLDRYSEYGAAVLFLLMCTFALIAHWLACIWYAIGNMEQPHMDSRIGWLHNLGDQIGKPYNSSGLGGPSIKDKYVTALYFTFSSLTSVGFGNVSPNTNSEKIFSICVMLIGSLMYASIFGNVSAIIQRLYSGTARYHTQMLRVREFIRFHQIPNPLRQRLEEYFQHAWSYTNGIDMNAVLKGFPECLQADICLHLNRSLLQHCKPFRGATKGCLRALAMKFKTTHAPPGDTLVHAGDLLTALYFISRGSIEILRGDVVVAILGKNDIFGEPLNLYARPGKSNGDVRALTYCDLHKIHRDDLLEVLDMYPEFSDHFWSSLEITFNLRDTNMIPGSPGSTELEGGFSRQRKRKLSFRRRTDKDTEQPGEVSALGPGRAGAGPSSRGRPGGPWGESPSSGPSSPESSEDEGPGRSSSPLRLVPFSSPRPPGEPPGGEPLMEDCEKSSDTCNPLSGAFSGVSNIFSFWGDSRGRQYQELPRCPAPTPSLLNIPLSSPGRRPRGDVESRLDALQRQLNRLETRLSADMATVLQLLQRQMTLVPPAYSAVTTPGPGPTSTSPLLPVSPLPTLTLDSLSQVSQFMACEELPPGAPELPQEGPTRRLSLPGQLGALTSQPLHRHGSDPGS

Row | SMILES | hERG current change (%, negative = inhibition) at 10uM
1 | Cc1cccc(NC(N)=S)c1 | -26.8%
2 | Cc1cc(C)nc(N2CCCC(C(=O)Nc3ccc4nc(C)c(C)nc4c3)C2)n1 (centres unmarked) | 9.96%
3 | O=c1[nH]c(=O)n(Cc2ccccc2Cl)c(O)c1C=Nc1ccc(F)cc1 | -3.68%
4 | CCOC(=O)c1c(C)nc2c3ccccc3ccn12 | -10.1%
5 | Brc1ccccc1-c1nnc(CSc2nncn2-c2ccccc2)o1 | -18.5%
6 | CC1CCCN(C(=O)C2CCN(CC(C)c3ccccc3)CC2)C1.O=C(O)C(=O)O (centres unmarked) | 8.12%
7 | Cc1ccccc1N1CCN(CC(=O)Nc2ccccc2C(=O)NC2CC2)CC1 | -62.4%
8 | CCC1(CC)C(=O)Nc2ccccc21 | 22.3%
9 | NC(=O)c1ccsc1NC(=O)COc1ccccc1 | -8.47%
10 | Cc1ccc(NC(=O)c2ccccc2Br)cc1S(=O)(=O)N(C)C | -1.84%
11 | COc1ccccc1NC(=O)c1ccc(S(=O)(=O)N2CCCC(C)C2)cc1 (centres unmarked) | 11.9%
12 | C[C@@H]1CC[C@]2(O[C@@H](CCO)C[C@H](O)[C@H]2O)O1 | 11.1%
13 | CC(C)CNC(=O)c1cccc(NC(=O)C(C)Oc2ccccc2)c1 (centres unmarked) | -18.9%
14 | CC(C)C(NS(=O)(=O)c1cccc(C(F)(F)F)c1)C(=O)NCc1cccs1 (centres unmarked) | -16%
15 | CC1CCc2nc(/C(C#N)=C/c3cccnc3)sc2C1 (centres unmarked) | 7.45%
16 | CCOC(=O)c1ccc2c(c1)nc(SCC(=O)N1CCOCC1)n2CC | 18.9%
17 | CCCC(=O)OCC(=O)Nc1ccccc1C#N | 18.4%
18 | Cc1nn(CC(C)C(=O)N2CCN(S(=O)(=O)c3ccc(Cl)cc3)CC2)c(C)c1C (centres unmarked) | -12.4%
19 | O=C1N/C(=C/c2ccc(N3CCCC3)cc2)C(=O)N1c1ccccc1 | 4.59%
20 | CC1=C(C)C(O)N(Cc2ccccc2)C1=O (centres unmarked) | 22.6%
21 | CC(=O)Nc1ccc(O)c(-c2nc3ccccc3s2)c1 | 11%
22 | CC1CC(C)(C)N2C(=O)C(=C(C#N)C#N)c3cccc1c32 (centres unmarked) | 16.3%
23 | O=S(=O)(c1cnc[nH]1)N1CCN(C(c2ccc(F)cc2)c2ccc(F)cc2)CC1 | -6.49%

Row | SMILES | hERG current change (%, negative = inhibition) at 10uM
24 | COc1ccc(-c2cc(C(F)(F)F)c3c(n2)sc2c(O)cc(=O)[nH]c23)c(OC)c1 | 0.949%
25 | Cc1ccc(Cn2ccc(NC(=O)c3nc4ncccn4n3)n2)cc1 | -2.44%
26 | COc1ccc2[nH]c(C(=O)O)c(NS(=O)(=O)c3ccc(C)c(C)c3)c2c1 | -18.1%
27 | CCc1nc2ccccc2c(C(=O)OC2CCCCC2=O)c1C (centres unmarked) | 15.5%
28 | CCOC(=O)c1ccccc1NC(=O)C1CC(=O)N(C(C)(C)C)C1 (centres unmarked) | 10.7%
29 | O=C(N/N=C/c1ccc(N2CCOCC2)o1)c1cccc(C(F)(F)F)c1 | -28.5%
30 | COc1cccc(OC)c1C(=O)Nc1nnc(C(C)C)s1 | -5.56%
31 | CC(C)Cn1c(-c2ccccc2)nc2ccccc2c1=O | -4.64%
32 | COc1cccc(C(=O)Nc2cc(NC(=O)c3ccco3)ccc2OC)c1 | -5.19%
33 | Cc1oc(/C=N/NC(=O)CC2(C)OCCO2)cc1Br | 6.93%
34 | CCOC(=O)N1CCC(NC(=O)c2ccc(CS(=O)(=O)c3ccccc3C)o2)CC1 | -26.7%
35 | O=C(NCC1CCN(Cc2cccc(Cl)c2)CC1)Nc1ccc(Cl)cc1 | -76.2%
36 | COc1ccc(C(NC(=O)CNC(C)=O)C(=O)Nc2ccc3c(c2)OCCO3)cc1 (centres unmarked) | 10.2%
37 | Nn1c(SCC(=O)N2CCOCC2)nnc1-c1cccnc1 | 29.6%
38 | CCCn1c(N)c(C(c2ccc(OC)cc2)N2CCN(c3ccccc3)CC2)c(=O)[nH]c1=O (centres unmarked) | -27.2%
39 | CCN(CC)CCNC(=S)Nc1ccc2nc3n(c(=O)c2c1)CCCCC3 | 0.152%
40 | CC1CCN(c2c(NCc3ccc(C(=O)N4c5ccccc5CC4C)cc3)c(=O)c2=O)CC1 (centres unmarked) | -13%
41 | CCOc1cc(CNCCc2ccc(S(N)(=O)=O)cc2)cc(Cl)c1OCc1ccccc1.Cl | -70.7%
42 | O=[N+]([O-])c1ccc(C(=S)N2CCN(Cc3ccccc3)CC2)cc1 | -57.6%
43 | CCOC(=O)CN(C(=O)CSc1nnc(CNc2ccc(C)cc2C)o1)c1ccccc1 | -5.41%
44 | Cc1cc(C)nc(NS(=O)(=O)c2ccc(NC(=S)NC(=O)c3cccnc3)cc2)n1 | 18%
45 | Cc1cccn2c(=O)c(/C=C(\C#N)C(=O)NCc3ccco3)c(N3CCC(C(N)=O)CC3)nc12 | -43%
46 | Cc1c(Cl)cccc1NC(=O)NCc1cccnc1 | 22.5%

Row | SMILES | hERG current change (%, negative = inhibition) at 10uM
47 | CCc1ccc(NC(=O)c2cc(CC(C)C)on2)cc1 | 6.19%
48 | CN(C)S(=O)(=O)c1ccc(N2CCCC2)c(C(=O)NCC2CCCO2)c1 (centres unmarked) | 23.2%
49 | CCOC(=O)c1sc(NC(=O)CN2C(=O)C3CC=CCC3C2=O)nc1C (centres unmarked) | 8.12%
50 | Cc1ccc(S(=O)(=O)N2CCN(CC(=O)N/N=C/c3cc([N+](=O)[O-])ccc3Cl)CC2)cc1 | -32.3%
51 | COc1cccc(NC(=O)c2cc(-c3ccco3)nc3ccccc23)c1 | 12.2%
52 | COC(=O)c1ccccc1NC(=S)N1CCC(N2CCCCC2)CC1 | -12.2%
53 | Cc1ccc(-n2c(Cn3nc(C(F)F)cc3C(F)F)n[nH]c2=S)cc1 | 10.7%
54 | CCN1CCN(C(=O)C2CCC(CNS(=O)(=O)c3ccccc3)CC2)CC1 (centres unmarked) | -8.7%
55 | O=C(C1=C[C@@H](c2ccc(C(F)(F)F)cc2)C[C@@H](OCCCCO)O1)N1CCN(Cc2ccccc2)CC1 | -60.6%
56 | O=C(NNC(=O)c1ccc([N+](=O)[O-])o1)c1ccccc1 | -6.59%
57 | CC1(C)CN(c2cccc(C#N)c2)C1=O | 26.5%
58 | CCC(C)C(NS(=O)(=O)c1ccc(C)cc1)C(=O)N1CCOCCOCCOCC1 (centres unmarked) | 8.49%
59 | COc1cccc(OC)c1OCCCOc1ccc([N+](=O)[O-])cc1Cl | 24.2%
60 | Cc1ccccc1OCCNC(=O)c1ccccc1Sc1ccccc1C#N | -4.06%
61 | C=CCNC(=S)N1CCN(CCN=Cc2c(C)[nH]n(-c3ccc([N+](=O)[O-])cc3)c2=O)CC1 | -72.1%
62 | CCCCNC(=O)NS(=O)(=O)c1ccc(C(=O)OC(C)C)o1 | 24.2%
63 | CC1CCN(CC(=O)Nc2ccc(S(=O)(=O)N3CCCC(C)C3)cc2)CC1 (centres unmarked) | 11.1%
64 | Cc1ccc(CSc2nc3c(c(=O)[nH]2)C(c2ccncc2)C2=C(CCCC2=O)N3)cc1 (centres unmarked) | 9.42%
65 | CCOc1cc(-c2nc3c(C)cccn3c2NCC2CCCO2)ccc1O.CNC.Cl (centres unmarked) | -43.9%
66 | O=C(Nc1ccccc1)c1ccco1 | 15%
67 | Cc1ccc(Sc2ccc(CN3CCCC3)cc2[N+](=O)[O-])cc1 | -83%
68 | CCc1ccc(-c2nc(CSCC(=O)NC3CC3)c(C)o2)cc1 | -20.6%
69 | Cc1noc(NS(=O)(=O)c2ccc(NC(=O)c3cc(=O)c4ccccc4o3)cc2)c1C | -9.46%

Row | SMILES | hERG current change (%, negative = inhibition) at 10uM
70 | COc1ccc(S(=O)(=O)N2CCCC2C(=O)Nn2cnnc2)cc1 (centres unmarked) | 18.2%
71 | Cc1ccccc1NC(=O)/C(C#N)=C/c1ccsc1 | 4.32%
72 | CC(=O)c1ccc(N2CCN(C(=O)c3cc(-c4ccncc4)nc4ccc(Br)cc34)CC2)cc1 | -42%
73 | CSc1ccc(/C=C/C(=O)OCC(=O)NC(C)C)cc1 | 10.6%
74 | O=C(/C=C/c1cccc([N+](=O)[O-])c1)NCCSCc1ccco1 | -29.5%
75 | COCc1cc(C)nc(NCCO)c1C#N | 4.28%
76 | COc1ccccc1C(=O)O/N=C(/C)c1ccc(N2C(=O)C3CCCCC3C2=O)cc1 (centres unmarked) | 7.57%
77 | CC(C)C(c1nnnn1Cc1cccs1)N1CCN(C2CCCC2)CC1 (centres unmarked) | -30.9%
78 | CCCN1CCC(=O)N(CCSc2ccc(OC)cc2)CC1 | -45.4%
79 | CCOc1ccc(CCNC(=O)C2CSC3(C)CCC(=O)N23)cc1OCC (centres unmarked) | 18.5%
80 | C[C@H](NC(=O)N1CCC(Cc2ccccc2)CC1)C(=O)O | 15.5%
81 | Cc1ccc(S(=O)(=O)Nc2ccc3cn[nH]c3c2)cc1 | -15.8%
82 | Cc1nc2ccccc2c(=O)n1-c1cccc(O)c1 | 14.1%
83 | O=C(N/N=C/c1cccc2nccnc12)c1ccncc1 | 0.676%
84 | CC(C)(C)NC(=O)C(c1cccs1)N(C(=O)c1csnn1)c1cccc(F)c1 (centres unmarked) | -7.68%
85 | Cc1ccc(OCc2cc(C(=O)N(C)CCc3ccccn3)no2)cn1 | 8.86%
86 | O=C(O)C1C2CCC(C2)C1C(=O)Nc1ccc(Cl)c(Cl)c1 (centres unmarked) | 5.43%
87 | C=CCc1ccc(OCCCCNC(C)CC)c(OC)c1.O=C(O)C(=O)O (centres unmarked) | -39.3%
88 | O=C(COC(=O)c1cc[n+]([O-])cc1)Nc1ccc(Cl)cc1[N+](=O)[O-] | 15.6%
89 | CCOc1ccccc1N1CCN(Cc2c(C)n(C)n(-c3ccccc3)c2=O)CC1 | -20.5%
